Laboratory results reported in PubChem BioAssay AID1963576 (National Center for Advancing Translational Sciences (NCATS), 2024).
The campaign covered roughly 46,000 compounds. About 60 (0.1%) were called active. Roughly 3% stayed inconclusive and do not appear here. Calls come from the whole dose curve; as a rule, active = well fitted inhibition curve with a large enough effect; inconclusive = small, poorly fitted or top-dose-only effect; inactive = no such curve, though single readings can be large or run the other way. The list shows a part of the results.

Assay: Primary qHTS assay for Inhibitors of ovarian cancer metastasis using an organotypic tumor microenvironment (TME) model.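 For activity change, negative = inhibition: plate controls were DMSO wells for no effect and tomatine positive control wells for full effect.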 Note: nearly all actives have a fitted effect of over 65% in size.
Settings: SKOV3ip1-GFP adhesion/invasion on 3D omental model, fluorescence; series mostly up to 45.8 µM; activity change, negative = inhibition: at the top concentration
How it was run: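 qHTS, 4-pt dose (0.36-46 umol/L); SKOV3ip1-GFP, 1,200 cells/well, no FBS; primary omental fibroblast/mesothelial co-culture 48 h pre-grown; 2 h RT + 16 h 37 C; PBS wash, 4% PFA; GFP count 488/509 nm.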

Structure (SMILES)	activity change, negative = inhibition	outcome
COc1ccc(Cl)cc1NC(=O)CSc1nccn1-c1ccc(Cl)cc1	inactive: -1.63%	
COc1ccccc1C(=O)NCc1nc2cccnc2n1Cc1ccc(F)cc1	inactive: -4.47%	
CCc1c(C)c2ccc(O)c(CN3CCN(c4ccc(F)cc4)CC3)c2oc1=O	inactive: 2.14%	
CCc1cccc(NS(=O)(=O)c2ccc3c(c2)CC(C)N3C(=O)C2CC2)c1 (stereo unspecified)	inactive: 9.19%	
COc1cccc(CNC(=O)C2CCCN(S(=O)(=O)N(C)c3ccc(F)cc3)C2)c1OC (stereo unspecified)		inactive
Cc1cccc(NC(=O)CSC2=Nc3ccccc3C3=NC(CC(=O)NCc4cccs4)C(=O)N23)c1 (stereo unspecified)	inactive: -1.9%	
COc1ccc(C(=O)NCCn2cc(SCc3ccc(C(F)(F)F)cc3)c3ccccc32)cc1OC	inactive: 3.06%	
COCCn1c(C)cc(O)c(C(c2ccccc2OC)N2CCN(c3ccccc3)CC2)c1=O (stereo unspecified)		inactive
COc1ccccc1/C=C/c1nc(C#N)c(NC2CCCCC2)o1		inactive
COc1ccc(CNC(=O)CCCn2nc(C)n3c(cc4sccc43)c2=O)cc1	inactive: -2%	
O=C(Nc1ccc2c(c1)CCCN2C(=O)c1cccs1)c1ccc(F)c(F)c1	inactive: -7.01%	
COc1ccc(C(=O)c2cn(Cc3ccccc3F)c3cc4c(cc3c2=O)OCCO4)cc1OC	inactive: -4.33%	
CCOC(=O)c1cnc2ccc(Br)cc2c1NCCN1CCOCC1	inactive: 54.4%	
CCOC(=O)COc1ccc(CC)cc1C(=O)c1ccn2nc(-c3ccc(F)cc3)cc2n1	inactive: 8.27%	
COc1ccc(-c2noc(CC(=O)N(C)c3cccc(C)c3)n2)cc1	inactive: -4.9%	
Cc1ccc(NC(=O)CN2C=NS(=O)(=O)c3ccccc32)cc1	inactive: -1.64%	
Cc1ccc(CCNC(=O)Cn2c(-c3cccs3)cc3ccccc32)cc1	inactive: -19.3%	
Cc1cccc(CNC(=O)c2cc3cc(S(=O)(=O)N4CCCCC4)ccc3n2C)c1	inactive: -3.19%	
O=C(Nc1ccc(C(=O)OCc2cc(=O)n3nc(C4CC4)sc3n2)cc1)c1ccccc1	inactive: -3.33%	
Cc1ccc(Cl)cc1N1CCN(C(=O)CCS(=O)(=O)c2cc(Br)cc3c2N(C(=O)C2CC2)CC3)CC1	inactive: -2.86%	
COc1ccc(NC(=O)CSc2oc(-c3cccs3)nc2S(=O)(=O)c2ccccc2)c(OC)c1	inactive: 10.4%	

Structure (SMILES)	activity change, negative = inhibition	outcome
CCc1ccc(S(=O)(=O)c2cn(Cc3ccccc3)c3cc(N4CCCC4)c(F)cc3c2=O)cc1	inactive: -17.6%	
COc1ccc(Cl)cc1S(=O)(=O)Nc1ccc2[nH]c(=O)[nH]c2c1		inactive
Cc1ccc(N2CC(NC(=O)c3ccccc3C(F)(F)F)CC2=O)cc1C (stereo unspecified)		inactive
COc1ccc(/C=C/C(=O)Nc2sc3c(c2C(N)=O)CCC(C)C3)cc1OC (stereo unspecified)		inactive
CCOc1ccc(C2C(=O)N(C3CCCCC3)CC(=O)N2C2CCCC2)cc1OC (stereo unspecified)		inactive
COc1cc(NC(=O)Cc2c(C(=O)O)c(C)cn2C)cc(OC)c1	inactive: 0.162%	
Cc1ccc2c(c1)N(C(=O)N1CCC(C(=O)NC3CCCCCC3)CC1)CC(C)O2 (stereo unspecified)	inactive: -8.51%	
Cc1cc(C)cc(OCc2ccc(C(=O)Nc3ccccc3F)o2)c1	inactive: 0.885%	
COc1ccc(CNC(=O)CCC(=O)N2CC3CCCN3c3ccccc32)c(OC)c1 (stereo unspecified)		inactive
CCc1cccc(NC(=O)CSc2ncccc2C(=O)Oc2ccccc2Cl)c1	inactive: -2.71%	
CNC(=O)c1c[nH]c2ccc(S(=O)(=O)Nc3cccc(Cl)c3C)cc2c1=O		inactive
CCOc1ccc(NC(=O)CCS(=O)(=O)c2cccc3nonc23)cc1	inactive: -1.99%	
Cc1ccc(-n2ncc3c(N4CCN(C)CC4)ncnc32)cc1Cl	inactive: -3.46%	
CNC(=O)c1ccc(Nc2nnc(-c3ccc(C)c(S(=O)(=O)N4CCCCC4)c3)c3ccccc23)cc1	inactive: -15.6%	
CCOC(=O)c1c(NC(=O)c2cc(C)on2)sc(C)c1C	inactive: -7.39%	
Cc1cc(C)c2c(=O)cc(C(=O)Nc3sc4c(c3C(=O)NCc3cccnc3)CCCC4)oc2c1	inactive: 2.11%	
CCOc1ccc(-n2c(SCC(=O)Nc3ccc(F)cc3)nc3c([nH]c4ccccc43)c2=O)cc1	inactive: -2.27%	
CC(=O)c1cccc(NC(=O)c2ccc(-n3c(C)nnc3C)cc2)c1	inactive: 12.9%	
COC(=O)c1cc(S(=O)(=O)NCC2CCN(Cc3ccc(C)cc3)CC2)c[nH]1		inactive
CCOc1ccccc1CNC(=O)c1ccc2c(c1)sc1nc(-c3cccc(OC)c3)cn12	inactive: -6.45%	
CC(C)n1c(SCC(=O)Nc2ccc(F)cc2)nc2c(oc3ccccc32)c1=O	inactive: -23.8%	

Structure (SMILES)	activity change, negative = inhibition	outcome
CC(C)C12CN3CC(C(C)C)(CN(C1)C3c1ccc(OCc3ccccc3)cc1)C2=O (stereo unspecified)	inactive: 10.2%	
CCC(Sc1nc2nccnc2c(=O)n1Cc1ccc(OC)cc1)C(=O)NC1CCCCC1 (stereo unspecified)	inactive: 1.33%	
COc1ccccc1CNC(=O)c1ccc(N2Cc3cccc(OC)c3Oc3ncccc32)s1	inactive: -4.33%	
COc1ccc(-c2noc(-c3ccc(N4CCCCC4C)c([N+](=O)[O-])c3)n2)cc1OC (stereo unspecified)	inactive: -5.74%	
O=C1OC(C(=O)Nc2ccc(Cl)c(C(F)(F)F)c2)Cc2ccccc21 (stereo unspecified)	inactive: 2.74%	
Cc1cc(NC(=O)COc2ccccc2)cc(-c2nc3ccccc3o2)c1O	inactive: 15%	
CC(C)(C)OC(=O)N1CCC(c2nnc(SCc3ccccc3)o2)CC1		inactive
Cn1ncc(C(=O)N2CCN(c3ccc(F)cc3)CC2)c1C1CCN(C(=O)OC(C)(C)C)CC1	inactive: -2.61%	
CCCN1C(=O)C(Cc2nc3ccccc3c(=O)n2-c2cccc(C)c2)c2ccccc21 (stereo unspecified)	inactive: 0.796%	
CCCn1c(-c2cccc(Br)c2)nc2ccccc21	inactive: 0.175%	
O=C(CSc1nnc2[nH]c(=O)cc(-c3ccccc3)n12)Nc1ccc(F)cc1F		inactive
CCn1c(-c2ccc(S(=O)(=O)N3CCOCC3)cc2)csc1=Nc1ccc(C)c(Cl)c1	inactive: 1.99%	
Cc1cc(C)cc(NC(=O)C2CCCN2S(=O)(=O)c2cccc3nsnc23)c1 (stereo unspecified)		inactive
CC(=O)Nc1cc(-c2nc3ccccc3s2)ccc1C	inactive: -9.7%	
Cc1ccc(C2=CC(c3c(F)cccc3Cl)n3ncnc3N2)cc1C (stereo unspecified)	inactive: 3.92%	
COc1ccc(C)cc1NC(=O)c1ccc2c(c1)CCN2S(=O)(=O)c1ccc(Cl)cc1	inactive: 11.6%	
COc1ccc(CNc2nc3c(c(=O)n(C)c(=O)n3C)n2Cc2ccccc2Cl)cc1	inactive: 8.78%	
Cc1ccc(C)c(CN2CCC(CNC(=O)c3cc4ccc5cccnc5c4[nH]3)CC2)c1	inactive: -14.3%	
Cc1cccc(-c2noc(-c3ccc(N4CCN(C)CC4)c([N+](=O)[O-])c3)n2)c1	inactive: 8.95%	
